# According to PubChem BioAssay AID2060343 (Molecular Pharmacology Branch, DTP, NCI, 2025):
# Not every entry of the source has a single result; some have several. This is not the full list of results. There may be further records. Results that share an entry are repeated measurements across runs, samples, wells, individuals or studies.
# Tested on: 138582-337-R-J1-PDC spheroids with HUVEC/MSC, viability
# Experiment: Anticancer human tumor 138582-337-R-J1-PDC patient-derived Merkel cell tumor cell line growth inhibition [IpAb]
# Details: compound alone; run of 05/18/2021
# Text: Combinatorial screen of targeted agents with ipatasertib and abemaciclib in multi-cell type tumor spheroids
# A high-throughput screen of multi-cell type tumor spheroids was designed to identify active combinations of targeted small molecules and ipatasertib or abemaciclib. Complex spheroids include a stromal component modeled by human endothelial cells (HUVEC) and fibroblasts modeled by human mesenchymal stem cells (MSCs). The concentration ranges selected for each drug and investigational agent were based upon clinically achievable concentrations if the clinical Cmax of the agent was known.
# Compounds. […] If the clinical Cmax for an agent had not been determined, the highest concentration tested was 10 microM.
# NCI60 Cell Culture. […] The optimal seeding densities for each of the cell lines at each time point assessed were determined prior to performing the concentration response studies. […]
# 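Also: spheroids exposed to compounds for seven days.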
smiles,measurement,value
CC(C)NCC(C(=O)N1CCN(c2ncnc3c2C(C)CC3O)CC1)c1ccc(Cl)cc1 (stereo unspecified),IC50,"2.24, 5.91, 2.54, 3.1, 3.71, 4.77, 2.17, 7.4, 5.14, 6.92, 4.73, 2.96, 3.88 µM"
